Data on 89 molecules can be found in article PMC4336329 (PLoS ONE, 2015).

In all, about 310,000 compounds went through this assay and about 2,200 (0.71%) showed an effect of 50% or more. Effects have a minus sign here. The list shows a part of the results.

This experiment deals with human ether-à-go-go-related gene (hERG) potassium channel (human, UniProt Q12809). Briefly: primary screen, population patch clamp on CHO cells stably expressing hERG.
human ether-à-go-go-related gene (hERG) potassium channel, sequence (Q12809 whole entry, looked up): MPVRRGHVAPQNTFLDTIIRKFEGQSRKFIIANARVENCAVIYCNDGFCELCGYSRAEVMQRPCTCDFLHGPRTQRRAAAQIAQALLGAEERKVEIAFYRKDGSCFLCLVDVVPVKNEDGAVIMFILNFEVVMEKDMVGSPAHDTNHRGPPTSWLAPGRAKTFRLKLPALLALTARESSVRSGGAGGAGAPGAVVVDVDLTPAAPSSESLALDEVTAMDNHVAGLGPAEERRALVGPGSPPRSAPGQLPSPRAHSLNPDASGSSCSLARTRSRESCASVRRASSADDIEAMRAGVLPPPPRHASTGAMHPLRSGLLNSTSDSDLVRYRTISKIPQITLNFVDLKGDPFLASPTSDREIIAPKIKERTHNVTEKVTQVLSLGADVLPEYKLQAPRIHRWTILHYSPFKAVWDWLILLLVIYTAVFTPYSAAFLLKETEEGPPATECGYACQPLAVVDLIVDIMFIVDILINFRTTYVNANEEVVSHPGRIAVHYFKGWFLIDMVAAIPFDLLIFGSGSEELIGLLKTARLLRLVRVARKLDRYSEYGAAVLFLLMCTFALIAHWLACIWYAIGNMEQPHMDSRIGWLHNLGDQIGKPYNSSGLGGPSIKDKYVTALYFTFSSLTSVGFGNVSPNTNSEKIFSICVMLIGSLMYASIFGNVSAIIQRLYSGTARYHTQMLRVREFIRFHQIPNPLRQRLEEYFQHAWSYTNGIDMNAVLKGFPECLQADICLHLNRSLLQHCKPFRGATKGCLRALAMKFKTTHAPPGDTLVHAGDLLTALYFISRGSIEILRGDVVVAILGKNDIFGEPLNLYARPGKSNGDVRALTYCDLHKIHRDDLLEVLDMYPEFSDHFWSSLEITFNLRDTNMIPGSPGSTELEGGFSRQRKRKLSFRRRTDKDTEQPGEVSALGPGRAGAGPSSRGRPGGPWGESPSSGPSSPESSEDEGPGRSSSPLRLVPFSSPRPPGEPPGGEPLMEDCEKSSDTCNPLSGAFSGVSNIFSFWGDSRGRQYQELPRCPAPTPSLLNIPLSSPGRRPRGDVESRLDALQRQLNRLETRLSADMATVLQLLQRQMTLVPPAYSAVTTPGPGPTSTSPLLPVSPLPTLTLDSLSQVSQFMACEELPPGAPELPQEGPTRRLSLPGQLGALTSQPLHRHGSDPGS
In the case of `Cc1[nH]c2ccccc2c1Cc1n[nH]c(=S)o1`, the “hERG current change (%, negative = inhibition) at 1uM” value amounted to 12.1%. As for `COc1ccc(NC(=O)CS(=O)(=O)c2cn(CC(=O)N3CCOCC3)c3ccccc23)cc1OC`, the figure is 11.5%; as for `CCNc1sc(C(=O)OCC)c(N)c1C#N`, 16%; as for `CC(C)(CS(=O)(=O)[O-])NC(=O)CC[N+](C)(C)CCO`, 9.33%.

With `COc1ccc(-c2cc(C(=O)OCc3ccccn3)c3ccccc3n2)cc1`, the “hERG current change (%, negative = inhibition) at 1uM” value is listed as 16.8%. Next, `COCC(=O)NCCc1nc(-c2ccccc2)cs1`: 11.7%; `CCOC(=O)c1sc(NC(=O)CSc2nc3ccccc3s2)c(C(=O)OCC)c1C`: 16%; `c1coc(-c2nn3c(Cn4nnc5ccccc54)nnc3s2)c1`: -3.47%. As for `COc1cccc(NC(=O)N2CCC(NC(=O)C(Cc3ccccc3F)NC(C)=O)CC2)c1` (centres unmarked), the figure is 9.79%; as for `COCCSc1ccccc1C(=O)Nc1ccncc1`, 14.7%; as for `COc1ccc2oc(=O)c(C(=O)NC3CCCCCC3)cc2c1`, 15.6%.

`COc1cccc(CN2CC(C(=O)NCc3cccc(N4CCCC4)c3)CCC2=O)c1` (centres unmarked): the “hERG current change (%, negative = inhibition) at 1uM” value is 5.69%. On to `CCC12CN(S(=O)(=O)c3ccc(C)cc3)CC(CC)(CN(S(=O)(=O)c3ccc(C)cc3)C1)C2=O`, for which the “hERG current change (%, negative = inhibition) at 1uM” value is on record as 3.9%.

Consider `COc1ccc(NC(C)=O)cc1S(=O)(=O)N1CCN(Cc2cccs2)CC1`, for which the “hERG current change (%, negative = inhibition) at 1uM” value was 9.42%.

Regarding `COc1ccc(C(=O)Nc2sc(C(=O)N(C)C)c(C)c2C#N)cc1[N+](=O)[O-]`, the “hERG current change (%, negative = inhibition) at 1uM” value is 12%. Next, `CCCCN(CC)C(=O)CSc1nc2ccccc2c(=O)n1CC1COc2ccccc2O1` (centres unmarked): -0.268%; `CS(=O)(=O)N1CC(C(=O)O)Oc2ccc(CC(=O)O)cc21` (centres unmarked): 16.9%; `Cn1cnnc1SCC(=O)Nc1ccccc1C(=O)NC1CC1`: 3.28%. As for `S=C(NCCSCc1ccc(Cl)cc1)Nc1ccccc1`, the figure is 7.25%; as for `C=CCNC(=S)NNC(=O)c1ccc(OCC)cc1`, 11.8%. Next, `Cn1c(/C=C/c2ccc(Cl)cc2Cl)c([N+](=O)[O-])c(=O)n(C)c1=O`: 10.5%. As for `CC(=O)c1ccc(C(=O)Nc2nnc(-c3ccc(Cl)cc3)o2)cc1`, the “hERG current change (%, negative = inhibition) at 1uM” value is reported as 13.3%. Next, `CC(=O)N(CCN1CCOCC1)Cc1cc2cc3c(cc2nc1Cl)OCO3`: 11.9%; `Cc1ccc(Cl)cc1NC(=S)N(C)N`: 9.76%; `O=C(N/N=C/c1c(Cl)[nH]c2ccccc12)c1ccc2c(c1)OCCO2`: 9.1%. For `CC(=O)c1ccc(NC(=O)CCNS(=O)(=O)c2ccccc2F)cc1`, the “hERG current change (%, negative = inhibition) at 1uM” value is 12.2%. As to `S=C(Nc1ccccc1)Nc1ccc(Br)cn1`, the “hERG current change (%, negative = inhibition) at 1uM” value came out at 16.1%. Regarding `CCOC(=O)Nc1ccc(NS(=O)(=O)c2ccc(C)cc2)cc1`, the “hERG current change (%, negative = inhibition) at 1uM” value is 1.61%. In the case of `CCCNC(=O)N1[C@H]2CC[C@@H]1C(C(=O)OC)=C(c1ccc(F)cc1OCc1ccccc1)C2`, the “hERG current change (%, negative = inhibition) at 1uM” value was 11.9%.

In the case of `COc1ccc(N2CCN(C(=O)CCC(=O)N3CC(C)Oc4ccccc43)CC2)cc1` (centres unmarked), the “hERG current change (%, negative = inhibition) at 1uM” value was -16.6%. Regarding `COc1cccc(/C=N/n2c(C)nc3ccccc32)c1OC`, the “hERG current change (%, negative = inhibition) at 1uM” value is on record as 12.6%. Next, `CCOC(=O)C1=C(C)NC(=O)NC1c1ccc(Cl)cc1Cl` (centres unmarked): -2.13%.

On to `CN(Cc1ccccc1)C(=O)c1ccc([N+](=O)[O-])o1`, for which the “hERG current change (%, negative = inhibition) at 1uM” value came out at 11.4%.

As to `Cc1ccc(Cn2c(CN(C)Cc3ccccc3)nc3c2c(=O)n(C)c(=O)n3C)cc1`, the “hERG current change (%, negative = inhibition) at 1uM” value is reported as 15.6%. In the case of `CCCN(CCC)C(=O)C(CCC(=O)[O-])NC(=O)c1ccccc1.[Na+]` (centres unmarked), the “hERG current change (%, negative = inhibition) at 1uM” value was found to be 5.45%.

As for `NS(=O)(=O)c1cccc(NC(=O)Cc2ccc(Cl)c(Cl)c2)c1`, the “hERG current change (%, negative = inhibition) at 1uM” value is given as 3.87%. As for `O=C(CN1CCN(c2ccc(F)cc2)CC1)NC(=O)NCc1ccco1`, the figure is 5.56%; as for `Br.CC(=O)Nc1ccc(-c2csc(N/N=C\c3ccncc3)n2)cc1`, 3.67%. Next, `Cc1ccc(/C=N/n2c(-c3cccs3)n[nH]c2=S)cc1`: 8.29%. Next, `CC(=O)Nc1ccccc1NC(=O)CN(C)S(=O)(=O)c1ccc(C)cc1`: 3.16%; `CN(C)c1ccc(S(=O)(=O)NCC(=O)OCC(=O)c2ccc[nH]2)cc1[N+](=O)[O-]`: 7.86%; `COc1cccc(N2CCN(CC(=O)c3c(C)[nH]c4ccccc34)CC2)c1`: -10.9%. As for `C=CCOC(=O)C1=C(C)NC(=O)NC1c1cc(Cl)cc(Cl)c1OC` (centres unmarked), the “hERG current change (%, negative = inhibition) at 1uM” value was found to be 8.06%. Next, `CC(C)[C@H](NC(=O)[C@@H]1CSC2c3ccccc3C(=O)N21)C(=O)NC1CCCCC1` (some centres unmarked): 17%; `CCOC(=O)C(=O)N(Nc1ccc(C)cc1)c1ccc(C)cc1`: 4.37%. As for `COc1ccccc1/C=C1\SC(=O)N(CCC(=O)N2CCCCC2CCO)C1=O` (centres unmarked), the figure is 14.7%; as for `CSCCC(NC(=O)c1ccc([N+](=O)[O-])cc1Cl)C(=O)OCC(=O)NCCCc1ccccc1` (centres unmarked), 11.8%. Consider `COCCn1c(SCC(=O)Nc2ccc(S(=O)(=O)N(C)C)cc2)nc2ccccc21`, for which the “hERG current change (%, negative = inhibition) at 1uM” value is -0.343%.

For `CCNC(=S)N=Nc1c(O)[nH]c2ccc(C(C)C)cc12`, the “hERG current change (%, negative = inhibition) at 1uM” value amounted to 8.69%. Next, `CCc1nonc1NC(=O)c1oc2ccc(C)cc2c1C`: 16%; `COc1ccccc1C(=O)NC(=O)COC(=O)C1CC1`: -2.92%; `COc1cc2c(cc1NC(=S)Nc1cccc(C(F)(F)F)c1)oc1ccccc12`: 13.3%. As for `COc1cccc(NC(=S)N(CCC(C)C)C(C)c2ccncc2)c1` (centres unmarked), the figure is 4.82%. For `COc1cc(C)nc(SCC(N)=O)n1`, the “hERG current change (%, negative = inhibition) at 1uM” value amounted to 6.86%.

As to `CCS(=O)(=O)C1=NSC2=NC(=O)/C(=C\c3ccc(OS(=O)(=O)c4ccccc4)c(OC)c3)C(=N)N21`, the “hERG current change (%, negative = inhibition) at 1uM” value was 16.2%. As for `COc1cccc(C2=NC(C)(C)NC(c3ccccc3O)C2)c1` (centres unmarked), the figure is 12%. Next, `CC1CCCCN1C(=O)COC(=O)c1n[nH]c2ccccc12` (centres unmarked): -0.522%; `Cc1nonc1NC(=O)CSc1nc2c(C)cccc2cc1C#N`: 5.44%; `Cc1ccc(Nc2cnn(C34CC5CC(CC(CC(=O)O)(C5)C3)C4)c(=O)c2Cl)cc1C`: 12.1%. Next, `Clc1ccccc1-c1csc(Nc2cccnc2)n1`: 2.38%; `Cn1c(Cc2csc(N)n2)nnc1SCC(=O)NC1CCCCC1`: 9.21%. For the molecule `CN(C)C(=O)c1nc2ccc(Cl)cn2c1CNCc1ccccc1OC(F)(F)F`, the “hERG current change (%, negative = inhibition) at 1uM” value is recorded as 14%. As to `Nc1ccc2nn(-c3ccc(F)cc3)nc2c1`, the “hERG current change (%, negative = inhibition) at 1uM” value worked out at 18.4%. With `COc1ccc(Cc2nnc(SCC(=O)Nc3ccc(C)c(Cl)c3)[nH]c2=O)cc1`, the “hERG current change (%, negative = inhibition) at 1uM” value was 5.51%.

`O=C(O)C1OC(C(=O)O)C2C1C(F)(F)C2(F)F` (centres unmarked): the “hERG current change (%, negative = inhibition) at 1uM” value is listed as 14.1%. Next, `C/C(Cn1cnc([N+](=O)[O-])n1)=N\NC(=O)c1ccccc1F`: 9.66%; `O=C(NCCCN=C1NS(=O)(=O)c2ccccc21)c1ccc(Cl)cc1`: 23.1%. As to `CC(C)CSc1nnc2[nH]c(=O)cc(N)n12`, the “hERG current change (%, negative = inhibition) at 1uM” value is recorded as 9.88%. As for `O=C(NCc1ccccc1Cl)c1ccc2c(=O)n(CCCN3CCCC3=O)c(=S)[nH]c2c1`, the figure is -3.62%; as for `O=C(COC(=O)C1=COCCO1)Nc1ncc(Cl)cc1Cl`, 5.39%. As for `Cc1ccc(S(=O)(=O)N/N=C/c2cccn2-c2ccc(Cl)cc2)cc1`, the figure is 5.53%. As for `COc1ccc(Cl)cc1C(=O)NCC(c1ccco1)N(C)C` (centres unmarked), the figure is 14.7%; as for `COc1cc(C(=O)NCc2ccco2)c(Br)c(OC)c1OC`, 0.975%; as for `Cc1ccc(S(=O)(=O)N2[C@@H](c3ccccc3F)C(C(=O)O)=CC[C@H]2c2ccc(Cl)c(Cl)c2)cc1`, 8.4%.

`CC1CCCN(C(=O)Nc2ccc(Br)cc2Cl)C1` (centres unmarked): the “hERG current change (%, negative = inhibition) at 1uM” value is recorded as -9.24%. For `COc1ccc(-c2noc(CSc3nnc(CCc4ccccc4)n3-c3ccccc3)n2)cc1OC`, the “hERG current change (%, negative = inhibition) at 1uM” value is -3.39%.

For the molecule `COc1ccc(CCNC(=O)CS(=O)Cc2nc(-c3cccs3)oc2C)cc1OC` (centres unmarked), the “hERG current change (%, negative = inhibition) at 1uM” value was -0.756%.

In the case of `C#CC(C)(CC)NC(=O)c1cc(OC)c(OC)c(OC)c1` (centres unmarked), the “hERG current change (%, negative = inhibition) at 1uM” value is 11.5%. Next, `COc1ccc([N+](=O)[O-])cc1NC(=O)C(C)OC(=O)c1cccnc1Cl` (centres unmarked): 5.53%.

With `CCCCc1c(O)nc(SCC(=O)Nc2ccc3c(c2)CCC3)[nH]c1=O`, the “hERG current change (%, negative = inhibition) at 1uM” value turned out to be 7.5%.

Turning to `CCOC(=O)c1ccc(NS(=O)C23CC4CC(CC(C4)C2)C3)cc1` (centres unmarked), the “hERG current change (%, negative = inhibition) at 1uM” value is given as 18.8%. As for `CCn1c(COc2ccccc2)nnc1SCC(=O)c1cccc([N+](=O)[O-])c1`, the figure is -11.7%; as for `Cc1nc2sc(C(c3ccco3)N3CCC4(CC3)OCCO4)c(O)n2n1` (centres unmarked), 2.08%.

With `OCC(C#CCN1CCCCC1)NCc1ccccc1` (centres unmarked), the “hERG current change (%, negative = inhibition) at 1uM” value is given as 14.9%. Next, `COc1ccc(C(=S)Nc2ccccc2)cc1`: 20.4%.

Take `N#Cc1c(Nc2ccccc2C(F)(F)F)s[nH]c1=O`: the “hERG current change (%, negative = inhibition) at 1uM” value is reported as 10.6%. Turning to `CCCCC(=NCCc1c(C)[nH]c2ccc(OC)cc12)C1=C(O)CC(c2ccccc2)CC1=O` (centres unmarked), the “hERG current change (%, negative = inhibition) at 1uM” value is 2.35%. As for `Cc1ccc2c(C)nc(Nc3nc(CSc4nnnn4-c4ccccc4)cc(=O)[nH]3)nc2c1`, the figure is 8.26%.

For `Cn1nc(C(=O)Nc2cccc(C(F)(F)F)c2)c2ccccc2c1=O`, the “hERG current change (%, negative = inhibition) at 1uM” value came out at 15.7%.
